Results as given in PubChem BioAssay (EPA / NIEHS).
This list was built around the results that the source calls inconclusive (neither active nor inactive); the mix of calls is not that of the screen. A potency beside an inconclusive call is a rough fit, not a confirmed value. Calls of active or inactive are those of the source. The calls were made as follows: active = hit-call score of the fitted dose curve at least 0.9, where 1 is the maximum; inconclusive = response in the unintended direction; inactive = score below 0.9.

Columns and labels:
[1] = biological target: GAL4 Transcription Factor (Internal Marker), GAL4 (gene 855828) (UniProt P04386); experiment: ATG_GAL4_XSP1: Attagene TRANS-FACTORIAL Multi-Species (XSP1) HepG2 Assay for GAL4 Transcription Factor (Internal Marker) (AID 2283789)
Procedure, shortened: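 HepG2 cells transiently transfected with multiplexed GAL4-UAS reporter units were exposed for 24 h with 3 nM 6-alpha-fluorotestosterone present. Reporter mRNA was quantified by RT-PCR, FAM labelling, HpaI digestion and capillary electrophoresis; background-control readout, gain-of-signal versus DMSO.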

[2] = ATG_M_61_XSP1: Attagene TRANS-FACTORIAL Multi-Species (XSP1) HepG2 Assay for M61 Transcription Factor (Internal Marker) (AID 2283797)
Procedure, shortened: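 HepG2 cells transiently transfected with multiplexed GAL4-driven reporter units, dosed 24 h with 3 nM 6-alpha-fluorotestosterone present. Reporter mRNA quantified by RT-PCR, 6-FAM labelling, HpaI digestion and capillary electrophoresis; internal-marker background control, gain of signal versus DMSO.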

[3] = ATG_M_32_XSP1: Attagene TRANS-FACTORIAL Multi-Species (XSP1) HepG2 Assay for M32 Transcription Factor (Internal Marker) (AID 2283799)
Procedure, shortened: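 HepG2 cells transiently transfected with multi-species TRANS reporter units, dosed 24 h with 3 nM 6-alpha-fluorotestosterone present. Internal-marker reporter mRNA quantified by RT-PCR and capillary electrophoresis; positive-direction fit versus DMSO.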

[4] = biological target: frog Thyroid hormone Receptor alpha (TRa), thra-a (gene 397942) (UniProt P15204); experiment: ATG_frTRa_XSP1: Attagene TRANS-FACTORIAL Multi-Species (XSP1) HepG2 Assay for frog Thyroid hormone Receptor alpha (TRa) (AID 2283804)
Procedure, shortened: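 HepG2 cells transiently transfected with frog TRa-GAL4 chimeric reporter units, dosed 24 hr with 3 nM 6-alpha-fluorotestosterone present; reporter mRNA quantified by RT-PCR, fluorescent labelling and capillary electrophoresis, gain of signal versus DMSO.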

[5] = test system: turtle Thyroid Hormone Receptor, alpha (TRa), gene 101949057; experiment: ATG_trTRa_XSP1: Attagene TRANS-FACTORIAL Multi-Species (XSP1) HepG2 Assay for turtle Thyroid Hormone Receptor, alpha (TRa) (AID 2283806)
Procedure, shortened: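 HepG2 cells transiently transfected with GAL4-UAS reporter units and chimeric receptor-Gal4 constructs, with 3 nM 6-alpha-fluorotestosterone present. Reporter mRNA was quantified 24 h after dosing by RT-PCR, 6-FAM labelling and capillary electrophoresis; gain of signal versus DMSO.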

[6] = biological target: human Thyroid hormone Receptor beta (TRb), THRB (gene 7068) (UniProt P10828); experiment: ATG_hTRb_XSP1: Attagene TRANS-FACTORIAL Multi-Species (XSP1) HepG2 Assay for human Thyroid hormone Receptor beta (TRb) (AID 2283808)
Procedure, shortened: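 HepG2 cells transiently transfected with reporter units driving GAL4-UAS reporters for chimeric NR-Gal4 proteins; 24 h chemical exposure with 3 nM 6-alpha-fluorotestosterone present. Reporter mRNA quantified by RT-PCR and capillary electrophoresis, gain of signal versus DMSO.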

[7] = ATG_XTT_Cytotoxicity_XSP1: Cytotoxicity Assessment in the Attagene TRANS-FACTORIAL Multi-Species (XSP1) HepG2 Assay (AID 2283810)
Procedure, shortened: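 XTT viability readout taken at 24 hours post-dosing in HepG2 liver cells co-treated with 3 nM 6-alpha-fluorotestosterone. Signal loss relative to DMSO controls reflects cytotoxicity.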

[8] = biological target: GAL4 Transcription Factor (Internal Marker), GAL4 (gene 855828) (UniProt P04386); experiment: ATG_GAL4_XSP2: Attagene TRANS-FACTORIAL Multi-Species (XSP2) HepG2 Assay for GAL4 Transcription Factor (Internal Marker) (AID 2283814);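 also: GAL4 reporter mRNA background control in MRTU transfected cells not a receptor target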
Procedure, shortened: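 HepG2 cells transiently transfected with GAL4-UAS reporter units, stimulated with 3 nM 6-alpha-fluorotestosterone plus 1.5 nM norgestrel, dosed 24 h. Reporter mRNA by RT-PCR/capillary electrophoresis; gain-of-signal fit versus DMSO, background control.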

[9] = test system: turtle Androgen Receptor (AR), gene 101947425; experiment: ATG_trAR_XSP2: Attagene TRANS-FACTORIAL Multi-Species (XSP2) HepG2 Assay for turtle Androgen Receptor (AR) (AID 2283815);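 as to AC50: reporter mRNA from a Gal4 chimera of turtle AR measured by RT-PCR; potency for gain of reporter signal meaning activation above DMSO baseline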
Procedure, shortened: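 HepG2 cells transiently transfected with GAL4-UAS reporter units for chimeric NR-Gal4 receptors; 24 h dosing in presence of 3 nM 6-alpha-fluorotestosterone and 1.5 nM norgestrel. Reporter mRNA by RT-PCR and capillary electrophoresis, gain of signal versus DMSO.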

[10] = test system: zebrafish Peroxisome Proliferator-activated Receptor gamma (PPARg), gene 557037; experiment: ATG_zfPPARg_XSP1: Attagene TRANS-FACTORIAL Multi-Species (XSP1) HepG2 Assay for zebrafish Peroxisome Proliferator-activated Receptor gamma (PPARg) (AID 2283801)
Procedure, shortened: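 HepG2 cells transiently transfected with GAL4-UAS reporter units including a zebrafish PPARg–GAL4 chimera, dosed 24 h with 3 nM 6-alpha-fluorotestosterone present. Reporter mRNA quantified by RT-PCR, FAM labelling, HpaI digestion and capillary electrophoresis; induction versus DMSO.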

[11] = biological target: zebrafish Estrogen Receptor (ER1), esr1 (gene 259252) (UniProt P57717); experiment: ATG_zfER1_XSP2: Attagene TRANS-FACTORIAL Multi-Species (XSP2) HepG2 Assay for zebrafish Estrogen Receptor (ER1) (AID 2283816)
Procedure, shortened: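 HepG2 cells transiently transfected with a GAL4-UAS reporter and a chimeric zebrafish ER1-Gal4 construct, dosed 24 h. Reporter mRNA quantified by RT-PCR, labelling, HpaI digestion and capillary electrophoresis, relative to DMSO.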

[12] = biological target: Peroxisome proliferator-activated receptor gamma (Homo sapiens) (UniProt P37231); experiment: ATG_hPPARg_XSP1: Attagene TRANS-FACTORIAL Multi-Species (XSP1) HepG2 Assay for human Peroxisome Proliferator-activated Receptor gamma (PPARg) (AID 2283800)
Procedure, shortened: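 HepG2 cells transiently transfected with GAL4-UAS reporter units carrying chimeric NR-Gal4 proteins; 3 nM 6-alpha-fluorotestosterone present. After 24 h dosing, reporter mRNA quantified by RT-PCR and capillary electrophoresis; gain of signal relative to DMSO.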

[13] = biological target: mouse Peroxisome Proliferator-activated Receptor gamma (PPARg), Pparg (gene 19016) (UniProt P37238); experiment: ATG_mPPARg_XSP1: Attagene TRANS-FACTORIAL Multi-Species (XSP1) HepG2 Assay for mouse Peroxisome Proliferator-activated Receptor gamma (PPARg) (AID 2283802)
Procedure, shortened: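 HepG2 cells transiently transfected with GAL4-UAS reporter units driven by mouse PPARg–GAL4 chimera; 3 nM 6-alpha-fluorotestosterone present. After 24 h dosing, reporter mRNA quantified by RT-PCR, fluorescent labelling and capillary electrophoresis; gain of signal versus DMSO.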

[14] = ATG_M_06_XSP1: Attagene TRANS-FACTORIAL Multi-Species (XSP1) HepG2 Assay for M06 Transcription Factor (Internal Marker) (AID 2283790)
Procedure, shortened: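 Transfected HepG2 multi-reporter system treated 24 h in the presence of 3 nM 6-alpha-fluorotestosterone. The M06 internal marker transcript was quantified by RT-PCR with capillary electrophoresis as a background control, and gain of signal was scored versus DMSO.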

[15] = biological target: zebrafish Thyroid Hormone Receptor alpha (TRa), thraa (gene 30670) (UniProt Q98867); experiment: ATG_zfTRa_XSP1: Attagene TRANS-FACTORIAL Multi-Species (XSP1) HepG2 Assay for zebrafish Thyroid Hormone Receptor alpha (TRa) (AID 2283807)
Procedure, shortened: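 HepG2 cells transiently transfected with GAL4-UAS reporter units including a zebrafish TRa–Gal4 chimera, dosed 24 h with 3 nM 6-alpha-fluorotestosterone present. Reporter mRNA quantified by RT-PCR and capillary electrophoresis; gain versus DMSO.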

[16] = ATG_M_06_XSP2: Attagene TRANS-FACTORIAL Multi-Species (XSP2) HepG2 Assay for M06 Transcription Factor (Internal Marker) (AID 2283811);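 also: hits are increases in signal above the DMSO baseline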
Procedure, shortened: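 HepG2 cells transiently transfected with GAL4-UAS multi-reporter constructs, dosed 24 h with 3 nM 6-alpha-fluorotestosterone plus 1.5 nM norgestrel present to stimulate androgen receptor. Reporter mRNA quantified by RT-PCR, 6-FAM labelling, HpaI digestion and capillary electrophoresis; gain-of-signal fitted versus DMSO baseline.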

[17] = biological target: Estrogen receptor beta (Homo sapiens) (UniProt Q92731); experiment: ATG_hERb_XSP2: Attagene TRANS-FACTORIAL Multi-Species (XSP2) HepG2 Assay for human Estrogen Receptor (ERb) (AID 2283813);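 also: actives raise reporter mRNA above DMSO so AC50 reflects agonist induction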
Procedure, shortened: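 HepG2 cells transiently transfected with GAL4-UAS reporter units and chimeric human ERb-Gal4, 24 h exposure. Reporter mRNA quantified by RT-PCR with FAM labelling, HpaI digestion and capillary electrophoresis; gain of signal versus DMSO.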

Measured: AC50

Chain of UniProt P37231 (P37231 whole entry, looked up, the tested form may be a part): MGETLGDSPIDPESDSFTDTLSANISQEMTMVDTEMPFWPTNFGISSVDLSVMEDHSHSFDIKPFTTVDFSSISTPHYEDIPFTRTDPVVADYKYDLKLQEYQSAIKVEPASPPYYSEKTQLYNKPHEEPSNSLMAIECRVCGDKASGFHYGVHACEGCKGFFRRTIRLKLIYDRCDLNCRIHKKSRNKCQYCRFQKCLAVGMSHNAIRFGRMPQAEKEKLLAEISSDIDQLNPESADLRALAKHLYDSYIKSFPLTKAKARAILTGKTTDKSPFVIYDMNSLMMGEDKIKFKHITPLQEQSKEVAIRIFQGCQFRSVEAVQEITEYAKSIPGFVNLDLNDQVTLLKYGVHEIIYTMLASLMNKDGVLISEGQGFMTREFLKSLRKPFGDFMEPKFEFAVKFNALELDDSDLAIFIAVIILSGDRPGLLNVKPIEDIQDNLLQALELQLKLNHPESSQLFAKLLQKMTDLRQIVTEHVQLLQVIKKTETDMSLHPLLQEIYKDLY
Chain of UniProt P37238 (P37238 whole entry, looked up, the tested form may be a part): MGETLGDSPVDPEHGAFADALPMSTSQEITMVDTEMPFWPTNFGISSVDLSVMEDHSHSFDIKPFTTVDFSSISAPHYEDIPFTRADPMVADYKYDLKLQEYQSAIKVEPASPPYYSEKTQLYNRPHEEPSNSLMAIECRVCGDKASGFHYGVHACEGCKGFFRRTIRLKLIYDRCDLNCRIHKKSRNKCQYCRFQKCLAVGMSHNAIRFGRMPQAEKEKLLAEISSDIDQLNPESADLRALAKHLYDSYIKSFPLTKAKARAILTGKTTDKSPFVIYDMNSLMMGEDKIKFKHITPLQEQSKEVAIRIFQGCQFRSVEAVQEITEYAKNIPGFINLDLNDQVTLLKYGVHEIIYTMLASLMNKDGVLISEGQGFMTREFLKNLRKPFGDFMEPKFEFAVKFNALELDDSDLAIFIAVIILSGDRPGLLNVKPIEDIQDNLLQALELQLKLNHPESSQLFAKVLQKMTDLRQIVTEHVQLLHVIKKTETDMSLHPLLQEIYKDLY
Chain of UniProt P15204 (P15204 whole entry, looked up, the tested form may be a part): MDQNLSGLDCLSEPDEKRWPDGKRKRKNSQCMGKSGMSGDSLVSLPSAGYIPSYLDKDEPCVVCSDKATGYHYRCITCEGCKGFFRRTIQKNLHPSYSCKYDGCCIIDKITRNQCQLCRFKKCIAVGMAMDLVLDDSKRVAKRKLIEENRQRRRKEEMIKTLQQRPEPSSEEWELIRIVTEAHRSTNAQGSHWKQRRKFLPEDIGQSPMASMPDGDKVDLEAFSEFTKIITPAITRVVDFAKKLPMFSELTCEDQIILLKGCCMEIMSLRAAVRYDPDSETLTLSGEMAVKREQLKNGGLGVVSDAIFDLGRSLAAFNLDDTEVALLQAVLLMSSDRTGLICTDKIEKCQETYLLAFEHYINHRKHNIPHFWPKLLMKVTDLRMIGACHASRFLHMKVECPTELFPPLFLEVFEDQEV
Chain of UniProt P10828 (P10828 whole entry, looked up, the tested form may be a part): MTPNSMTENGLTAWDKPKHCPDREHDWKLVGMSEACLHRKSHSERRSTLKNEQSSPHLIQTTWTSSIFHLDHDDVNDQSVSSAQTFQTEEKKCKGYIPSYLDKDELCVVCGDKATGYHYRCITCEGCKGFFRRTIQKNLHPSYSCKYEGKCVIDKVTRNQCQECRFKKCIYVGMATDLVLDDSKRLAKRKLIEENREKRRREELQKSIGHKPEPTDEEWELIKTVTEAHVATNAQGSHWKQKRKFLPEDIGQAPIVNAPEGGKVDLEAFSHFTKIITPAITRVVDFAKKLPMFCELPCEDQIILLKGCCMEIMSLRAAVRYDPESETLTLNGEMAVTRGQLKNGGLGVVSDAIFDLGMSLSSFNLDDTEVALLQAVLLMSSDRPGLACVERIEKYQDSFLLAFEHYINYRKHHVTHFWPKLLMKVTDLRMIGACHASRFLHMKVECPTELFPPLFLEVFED
Chain of UniProt P57717 (P57717 whole entry, looked up, the tested form may be a part): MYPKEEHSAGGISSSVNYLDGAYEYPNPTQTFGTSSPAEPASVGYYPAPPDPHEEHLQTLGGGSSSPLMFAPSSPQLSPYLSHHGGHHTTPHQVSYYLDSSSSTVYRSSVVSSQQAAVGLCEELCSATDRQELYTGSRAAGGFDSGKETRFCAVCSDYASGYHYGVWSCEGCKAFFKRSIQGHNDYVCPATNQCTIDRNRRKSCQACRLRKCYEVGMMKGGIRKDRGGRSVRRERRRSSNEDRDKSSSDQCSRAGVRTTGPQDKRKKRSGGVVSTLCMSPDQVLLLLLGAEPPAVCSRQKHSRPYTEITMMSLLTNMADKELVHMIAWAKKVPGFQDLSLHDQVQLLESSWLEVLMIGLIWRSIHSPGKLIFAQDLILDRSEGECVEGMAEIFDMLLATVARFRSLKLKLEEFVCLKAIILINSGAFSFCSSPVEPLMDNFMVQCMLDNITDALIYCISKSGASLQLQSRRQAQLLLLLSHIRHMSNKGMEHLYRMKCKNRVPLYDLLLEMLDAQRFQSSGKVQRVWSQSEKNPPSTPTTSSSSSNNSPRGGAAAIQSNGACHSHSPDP
Chain of UniProt P04386 (P04386 whole entry, looked up, the tested form may be a part): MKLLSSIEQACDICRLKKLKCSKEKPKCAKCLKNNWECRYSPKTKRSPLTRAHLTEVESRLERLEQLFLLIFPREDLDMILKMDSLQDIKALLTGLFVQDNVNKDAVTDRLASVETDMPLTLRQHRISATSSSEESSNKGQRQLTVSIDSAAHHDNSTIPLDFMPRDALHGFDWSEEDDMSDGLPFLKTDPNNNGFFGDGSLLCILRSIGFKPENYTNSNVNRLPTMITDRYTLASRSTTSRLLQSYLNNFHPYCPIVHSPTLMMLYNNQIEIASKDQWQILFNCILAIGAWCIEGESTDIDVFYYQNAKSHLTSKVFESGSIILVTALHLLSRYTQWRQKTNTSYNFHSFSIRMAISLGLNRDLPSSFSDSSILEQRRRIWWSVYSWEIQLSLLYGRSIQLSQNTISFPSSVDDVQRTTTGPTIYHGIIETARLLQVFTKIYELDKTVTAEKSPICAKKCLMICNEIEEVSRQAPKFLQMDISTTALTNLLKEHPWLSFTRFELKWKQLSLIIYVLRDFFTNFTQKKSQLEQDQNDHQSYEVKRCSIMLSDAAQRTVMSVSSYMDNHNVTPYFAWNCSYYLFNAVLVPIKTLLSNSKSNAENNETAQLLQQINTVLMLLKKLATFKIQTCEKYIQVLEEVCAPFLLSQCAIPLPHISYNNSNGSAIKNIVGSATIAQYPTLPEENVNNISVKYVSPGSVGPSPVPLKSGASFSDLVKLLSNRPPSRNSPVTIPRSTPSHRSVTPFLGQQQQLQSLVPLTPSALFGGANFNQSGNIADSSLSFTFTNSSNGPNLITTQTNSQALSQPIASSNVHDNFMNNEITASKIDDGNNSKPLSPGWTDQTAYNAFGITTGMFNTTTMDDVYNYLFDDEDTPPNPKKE
Chain of UniProt Q98867 (Q98867 whole entry, looked up, the tested form may be a part): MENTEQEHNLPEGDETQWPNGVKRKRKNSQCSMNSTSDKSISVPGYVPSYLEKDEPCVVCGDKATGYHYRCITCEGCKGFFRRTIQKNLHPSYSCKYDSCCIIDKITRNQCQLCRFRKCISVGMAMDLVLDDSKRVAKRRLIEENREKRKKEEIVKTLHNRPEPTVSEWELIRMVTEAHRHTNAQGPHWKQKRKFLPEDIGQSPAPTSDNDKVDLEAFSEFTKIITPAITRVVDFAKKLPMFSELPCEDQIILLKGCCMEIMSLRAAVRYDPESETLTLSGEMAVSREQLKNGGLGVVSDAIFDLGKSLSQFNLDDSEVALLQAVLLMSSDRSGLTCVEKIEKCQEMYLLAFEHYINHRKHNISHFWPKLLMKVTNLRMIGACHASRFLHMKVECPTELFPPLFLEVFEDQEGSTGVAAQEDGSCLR
Chain of UniProt Q92731 (Q92731 whole entry, looked up, the tested form may be a part): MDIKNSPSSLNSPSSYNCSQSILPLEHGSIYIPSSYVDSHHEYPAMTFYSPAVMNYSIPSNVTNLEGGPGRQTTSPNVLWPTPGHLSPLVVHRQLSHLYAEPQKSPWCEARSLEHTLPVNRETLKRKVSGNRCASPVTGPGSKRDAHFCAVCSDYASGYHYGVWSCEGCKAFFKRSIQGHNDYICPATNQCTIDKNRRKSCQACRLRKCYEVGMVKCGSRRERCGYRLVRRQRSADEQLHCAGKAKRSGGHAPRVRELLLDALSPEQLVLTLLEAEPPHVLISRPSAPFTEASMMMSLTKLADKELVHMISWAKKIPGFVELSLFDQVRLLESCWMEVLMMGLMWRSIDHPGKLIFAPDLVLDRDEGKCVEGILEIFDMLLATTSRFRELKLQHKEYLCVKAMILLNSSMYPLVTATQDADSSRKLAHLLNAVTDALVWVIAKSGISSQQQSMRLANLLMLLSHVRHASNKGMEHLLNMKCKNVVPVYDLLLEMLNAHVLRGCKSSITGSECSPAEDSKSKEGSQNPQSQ

CCCN(CCC)c1c([N+](=O)[O-])cc(S(N)(=O)=O)cc1[N+](=O)[O-]
active: [1] 49.1 µM | [3] 54.4 µM | [4] 8.93 µM | [5] 8.29 µM | [6] 9.26 µM | [7] 161 µM
inconclusive: [8] 33.4 µM | [9] 60.6 µM
inactive: [2]

COP(=O)(OC)O/C(=C\Cl)c1cc(Cl)c(Cl)cc1Cl
inconclusive: [1] 182 µM | [3] 100 µM | [4] 1.26 µM | [5] 100 µM | [6] 100 µM | [9] 20.4 µM | [11] 100 µM
inactive: [10]

CC(C)(C)c1cc(O)ccc1O
inactive: [4] | [9] | [11]
inconclusive: [1] 56.3 µM | [3] 33.4 µM | [5] 33.4 µM | [6] 33.4 µM | [7] 23.8 µM | [8] 100 µM

COc1ccc(C(c2ccc(OC)cc2)C(Cl)(Cl)Cl)cc1
inactive: [1] | [2] | [12] | [13] | [8]
inconclusive: [3] 9.95 µM | [10] 9.95 µM | [4] 0.054 µM | [5] 9.95 µM | [9] 99.5 µM | [11] 0.451 µM

C[C@]12C=CC3=C4CCC(=O)C=C4CC[C@H]3[C@@H]1CC[C@@H]2O
active: [9] 0.00534 µM
inconclusive: [1] 0.1 µM | [14] 0.1 µM | [2] 0.1 µM | [12] 0.000604 µM | [10] 0.000501 µM | [13] 0.000198 µM | [15] 0.1 µM | [6] 0.1 µM | [8] 0.1 µM

CC(C)CCCCCCCOC(=O)c1ccccc1C(=O)OCCCCCCCC(C)C
inconclusive: [1] 23.9 µM | [14] 100 µM | [2] 100 µM | [12] 100 µM | [13] 100 µM | [4] 100 µM | [7] 100 µM | [16] 100 µM | [17] 0.00914 µM | [8] 100 µM | [9] 100 µM | [11] 54.4 µM
inactive: [10]
